Results on 44 compounds are retold here after publication PMC4336329 (PLoS ONE, 2015).

Hit rate of the full screen: of about 310,000 compounds, about 14,000 (4.5%) showed an effect of 50% or more. Effects have a minus sign here. Some of the results follow.
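Note: peak tail current of the secondary pulse compared with the same well before compound.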

Sequence of human ether-à-go-go-related gene (hERG) potassium channel (Q12809 whole entry, looked up): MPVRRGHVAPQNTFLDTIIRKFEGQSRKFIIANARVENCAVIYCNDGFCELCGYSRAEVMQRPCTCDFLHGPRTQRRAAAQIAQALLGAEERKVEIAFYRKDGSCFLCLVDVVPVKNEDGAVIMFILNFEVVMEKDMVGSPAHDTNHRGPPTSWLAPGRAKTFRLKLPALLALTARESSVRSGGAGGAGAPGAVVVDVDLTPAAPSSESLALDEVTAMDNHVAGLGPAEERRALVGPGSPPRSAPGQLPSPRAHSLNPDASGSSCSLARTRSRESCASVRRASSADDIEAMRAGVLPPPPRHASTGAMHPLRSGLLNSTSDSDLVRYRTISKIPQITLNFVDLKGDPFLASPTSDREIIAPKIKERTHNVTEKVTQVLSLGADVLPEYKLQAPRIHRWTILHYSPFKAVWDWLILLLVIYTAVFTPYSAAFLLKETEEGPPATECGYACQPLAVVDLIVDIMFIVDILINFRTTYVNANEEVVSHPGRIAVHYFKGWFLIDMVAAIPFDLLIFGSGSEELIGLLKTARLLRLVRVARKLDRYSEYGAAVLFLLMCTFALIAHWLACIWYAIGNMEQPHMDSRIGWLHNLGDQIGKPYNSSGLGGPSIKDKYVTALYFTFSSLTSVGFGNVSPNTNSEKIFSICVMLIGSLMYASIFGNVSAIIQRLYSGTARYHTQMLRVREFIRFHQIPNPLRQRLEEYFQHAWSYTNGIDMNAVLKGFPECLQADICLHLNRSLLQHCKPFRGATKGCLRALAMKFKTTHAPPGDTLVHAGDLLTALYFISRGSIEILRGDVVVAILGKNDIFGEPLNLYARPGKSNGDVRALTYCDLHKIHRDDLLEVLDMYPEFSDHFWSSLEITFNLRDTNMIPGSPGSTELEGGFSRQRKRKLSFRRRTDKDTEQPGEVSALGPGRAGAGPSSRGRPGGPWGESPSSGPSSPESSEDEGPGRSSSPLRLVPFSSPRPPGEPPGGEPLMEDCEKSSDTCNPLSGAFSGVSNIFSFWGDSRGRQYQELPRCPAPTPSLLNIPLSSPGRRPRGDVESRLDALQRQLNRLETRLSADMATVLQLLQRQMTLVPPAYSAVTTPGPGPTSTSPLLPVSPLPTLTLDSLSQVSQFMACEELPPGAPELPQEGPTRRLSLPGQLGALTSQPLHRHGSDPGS

This assay concerns the target human ether-à-go-go-related gene (hERG) potassium channel (human, UniProt Q12809). The assay can be described thus: primary screen, population patch clamp on CHO cells stably expressing hERG.
As for `O=C(c1cc(Cl)nc2ccccc12)N1CCN(S(=O)(=O)c2cccc(F)c2)CC1`, the “hERG current change (%, negative = inhibition) at 10uM” value was -5.28%. Under `COc1ccc(C(=O)N2CCN(c3ccccc3)CC2)cc1S(=O)(=O)N1CCOCC1` stands -16.7%. Under `CCN1CCN(CC(=O)Nc2cc(F)ccc2C)CC1` stands -46.2%; under `O=C(/C=C/c1c(Cl)cccc1Cl)NCCCn1ccnc1`, -22.2%; under `CC(c1ccco1)N(C(=O)COc1ccc(Cl)cc1)c1ccccn1` (centres unmarked), -12.7%. The same measure for `C/C(=N\O)C(=O)NCCN(C)C`: 29.3%; for `O=C(NCc1csc2ccc(Cl)cc12)Nc1ccccc1`: 13%; for `CCOC(=O)c1[nH]c(C)c(C(=O)NCc2ccc(OC)cc2)c1C`: 2.13%. `Cc1cc(C(=O)NC(C)Cc2ccccc2)cc(C)c1[N+](=O)[O-]` (centres unmarked): the “hERG current change (%, negative = inhibition) at 10uM” value is on record as 2.43%. Under `O=c1oc(CCCO)cc2ccc(C#CC3(O)CCCCC3)cc12` stands -6.73%; under `COc1ccc(CNC(=O)Cn2nc([N+](=O)[O-])cc2C)cc1`, 0.309%. Under `Cc1ccccc1OCC(O)Cn1c(SC(C)C)nc2c1c(=O)[nH]c(=O)n2C` (centres unmarked) stands -24.8%.

Take `CCC(=O)N1c2ccc(S(=O)(=O)CCC(=O)N3CCC4(CC3)OCCO4)cc2CC1C` (centres unmarked): the “hERG current change (%, negative = inhibition) at 10uM” value is given as 10.3%. `Cc1ccc(S(=O)(=O)N2CCC(C(=O)OC(C)C(=O)NCc3ccccc3)CC2)cc1C` (centres unmarked): the “hERG current change (%, negative = inhibition) at 10uM” value is recorded as -16.9%. In the case of `N#Cc1ccc(/C=C/C(=O)c2ccccc2)cc1`, the “hERG current change (%, negative = inhibition) at 10uM” value was -11.1%. Under `COc1ccc(NS(=O)(=O)c2cc(NC(=O)[C@@H](NC(=O)c3ccccc3)C(C)C)ccc2C)cc1` stands -10.8%.

In the case of `O=C(c1c(F)cccc1Cl)N1CCN(S(=O)(=O)c2ccc3c(c2)OCCCO3)CC1`, the “hERG current change (%, negative = inhibition) at 10uM” value was -0.77%. Turning to `CCOC(=O)c1sc2nc(SCC#N)n(CC3CCCO3)c(=O)c2c1C` (centres unmarked), the “hERG current change (%, negative = inhibition) at 10uM” value is -13.5%. On to `COc1cc(C)c(C)cc1S(=O)(=O)n1c(C)nc2ccccc21`, for which the “hERG current change (%, negative = inhibition) at 10uM” value is recorded as -4.75%. Under `CCOC(=O)c1ccc(NC(=S)NCCc2ccccc2F)cc1` stands -8.72%; under `COCCCNC(=S)N1CCN(c2ccccc2)CC1`, 12.9%; under `CCOc1ccc(NC(=O)c2ccc(NC(=O)c3cn4c5c(c(N6CCN(C)CC6)c(F)cc5c3=O)OCC4C)cc2)cc1` (centres unmarked), -4.75%. Under `O=C(Nc1ccc(-c2nc3ccccc3s2)c(OC(=O)c2ccccc2)c1)c1ccccc1` stands 9.01%; under `Cc1cc(C)cc(N(CC(=O)NC2CCCC2)C(=O)CCC(=O)Nc2cc(C)on2)c1`, 3.71%; under `O=C(Nc1ccc(NC(=O)C2CC2)nc1)c1cccnc1`, 7.26%. Under `COCCn1c(SCc2ccc(F)cc2)nc2ccccc2c1=O` stands 8.09%.

As to `O=C(CCSc1nnc(-c2ccncc2)o1)Nc1cccc2ccccc12`, the “hERG current change (%, negative = inhibition) at 10uM” value is -20.5%. The same measure for `CC12CN3CC(C)(CN(C1)C3c1ccc3c(c1)OCO3)C2O` (centres unmarked): 6.36%; for `COc1ccc(C(=O)Nc2ccc(N3CCOCC3)cc2)cc1OC`: 1.36%.

As to `CCCOC(=O)c1cc(-c2ccc(C=O)o2)ccc1Cl`, the “hERG current change (%, negative = inhibition) at 10uM” value was -7.95%. The same measure for `CC(/C=C/c1ccccc1)=N\NC(N)=S`: 12.3%; for `CCC(=O)N1CCc2cc(S(=O)(=O)N3CCN(c4cc(Cl)ccc4C)CC3)ccc21`: 2.72%; for `CCCCn1c(N)c(N(CCOC)C(=O)c2c(CC)noc2C)c(=O)[nH]c1=O`: 19.9%.

Take `CC1CCN(S(=O)(=O)c2ccc(C(=O)N3CCCCC3C(=O)O)cc2)CC1` (centres unmarked): the “hERG current change (%, negative = inhibition) at 10uM” value worked out at 20.3%. For the compound `CCOC(=O)/C(C(=O)Nc1ccc(Br)cc1)=C1/NC(C)(C)Cc2ccccc21`, the “hERG current change (%, negative = inhibition) at 10uM” value was 3.96%. Under `COc1cccc(/C(O)=C2/C(=O)C(=O)N(Cc3cccnc3)C2c2ccco2)c1` (centres unmarked) stands 23%; under `O=C1Nc2ccc(Br)cc2C1(O)c1ccccc1` (centres unmarked), 4.3%; under `CCOC(=O)N1CCN(C(=O)c2ccc3c(c2)N=C(C)c2cc(Cl)ccc2S3)CC1`, -25.6%. Under `CC1(C)CC(=O)C2=C(C1)Nc1ccccc1NC2` stands 12.4%; under `Cc1cc(-c2cccs2)c(C#N)c(=S)[nH]1`, 10.8%; under `O=C(CSc1nnc(Cc2ccccc2)n1-c1ccc(F)cc1)N1CCOCC1`, -13.8%.

Regarding `Cc1cccnc1NC(=S)NC(=O)c1oc2ccccc2c1C`, the “hERG current change (%, negative = inhibition) at 10uM” value was determined as 14.2%. As to `N#CC(C#N)=C1C=CC=CN1/C(=C\c1ccco1)C(=O)c1ccc(Cl)cc1`, the “hERG current change (%, negative = inhibition) at 10uM” value was -36%. The same measure for `O=C(CSc1nc2c(cnn2-c2ccc(F)cc2)c(=O)[nH]1)N1CCCCC1`: 1.82%.
